Measurements reported in PubChem BioAssay AID488969 (Vanderbilt High Throughput Screening Facility, 2010).
Over roughly 110,000 compounds, “z-score” has its median near -0.1; the highest 2% begin near 2. The list shows a part of the results. The source made the active and inactive calls.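 How the source made its calls: active means z-score in the third read window above 3 or below -3; inactive means the rest.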

What follows are molecules tested against Metabotropic glutamate receptor 8 (Rattus norvegicus) (UniProt P70579) (assay: mGluR8 Gi/Go-coupled signaling modulation – cell-based, rat, thallium flux, HTS, primary screen (AID 488969)). Settings: HEK293 rat mGluR8, GIRK (G protein-gated inwardly rectifying potassium channel) thallium flux, FluoZin2; at 10 µM; stronger effect = higher value; submaximal glutamate (EC20) added with thallium.
UniProt P70579, sequence (P70579 whole entry, looked up): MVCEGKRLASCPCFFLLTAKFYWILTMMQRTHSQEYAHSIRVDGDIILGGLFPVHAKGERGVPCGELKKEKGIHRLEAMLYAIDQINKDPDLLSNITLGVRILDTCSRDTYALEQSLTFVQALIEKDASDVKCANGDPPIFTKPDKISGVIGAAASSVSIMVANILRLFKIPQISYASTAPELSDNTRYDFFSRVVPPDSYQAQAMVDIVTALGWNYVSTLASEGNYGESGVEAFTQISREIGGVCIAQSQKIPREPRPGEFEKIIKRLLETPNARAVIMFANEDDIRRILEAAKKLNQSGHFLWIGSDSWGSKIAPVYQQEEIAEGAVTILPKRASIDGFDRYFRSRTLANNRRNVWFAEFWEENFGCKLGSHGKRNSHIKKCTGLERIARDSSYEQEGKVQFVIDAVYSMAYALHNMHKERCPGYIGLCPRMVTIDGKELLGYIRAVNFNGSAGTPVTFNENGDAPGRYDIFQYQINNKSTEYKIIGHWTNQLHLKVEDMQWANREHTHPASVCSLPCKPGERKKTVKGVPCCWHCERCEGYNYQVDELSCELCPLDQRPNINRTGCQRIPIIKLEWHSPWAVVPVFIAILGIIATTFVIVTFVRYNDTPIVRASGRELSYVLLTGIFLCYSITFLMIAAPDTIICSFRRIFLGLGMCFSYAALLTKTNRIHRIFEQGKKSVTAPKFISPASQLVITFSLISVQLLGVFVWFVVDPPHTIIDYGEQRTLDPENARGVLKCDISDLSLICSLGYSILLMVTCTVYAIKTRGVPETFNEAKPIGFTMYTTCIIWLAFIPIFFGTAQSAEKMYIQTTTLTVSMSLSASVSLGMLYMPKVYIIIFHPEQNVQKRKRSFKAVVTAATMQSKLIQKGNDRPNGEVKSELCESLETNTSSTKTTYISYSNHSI

Row | SMILES | z-score
1 | O=C(NCc1ccccc1)NC1CCCCC1 | -0.555
2 | COc1cccc2c1NC(C(=O)O)C1CC=CC21 (configuration not stated) | -0.511
3 | CN1CCN(CCC(=O)Nc2ccc(F)c(F)c2)CC1 | 0.743
4 | CCCCn1nc(-c2ccccc2)c2nc3ccccc3nc21 | -0.013
5 | Cc1cc(C)c(NC(=O)COc2ccccc2C(=O)Nc2ccc3c(c2)oc2ccccc23)c(C)c1 | 1.61
6 | CCOCCCNC(=O)CN1C(=O)C(CC)Oc2ccccc21 (configuration not stated) | 0.522
7 | Cc1ccccc1C1NS(=O)(=O)N=C1N (configuration not stated) | 0.553
8 | O=C(CCn1nc(-c2ccc(Cl)cc2)c2ccccc2c1=O)NCCN1CCOCC1 | -0.0201
9 | COc1cc(C(=O)NCc2nnc(SCC(=O)Nc3cccc(C)c3)o2)cc(OC)c1OC | 0.436
10 | O=C(CN1CCSCC1)N/N=C/c1ccc(F)cc1 | 0.536
11 | O=C(NCCNS(=O)(=O)c1cccc(C(F)(F)F)c1)c1cc(OCC(F)(F)F)ccc1OCC(F)(F)F | 0.133
12 | Nn1c(-c2ccccc2Cl)nnc1-c1ccccc1Cl | 0.847
13 | CCN(CC)CCOC(c1ccccc1)c1ccc(C)cc1 (configuration not stated) | 0.172
14 | Cc1noc(C)c1C(=O)NCc1cccs1 | -0.0943
15 | CCc1nnc(NC(=O)CSc2nnc(CSc3nc(C)cc(C)n3)n2CC)s1 | 0.273
16 | Cc1ccc(Oc2nnc(-c3ccccc3)cc2C#N)cc1 | -0.198
17 | N#CC1(c2ccccc2)CCC(=NO)CC1 (configuration not stated) | -0.222
18 | Cc1ccc(CNC(=O)Cc2cccs2)cc1 | 0.00768
19 | CC1CCc2sc(C(=O)NCc3ccc(F)cc3)cc2C1 (configuration not stated) | -0.239
20 | Cc1nn(Cc2ccccc2Cl)c2sc(C(=O)NCCCn3ccnc3)cc12 | -0.16
21 | C(=N/n1c2ccccc2c2ccccc21)/c1ccco1 | -0.375
22 | S=C(NCc1cccs1)Nc1cccc(Cl)c1Cl | 1.24
23 | CC1CCN(c2c([N+](=O)[O-])c(=O)oc3ccccc23)CC1 | -2.23

Row | SMILES | z-score
24 | O=C1CN(C(=O)OCc2ccccc2)c2ccccc2N1 | -0.224
25 | COCCn1c(SCC(=O)Nc2nc3ccccc3s2)nnc1-c1ccoc1C | -1.07
26 | O=C(Nc1cccc(NC(=O)c2ccco2)c1)c1ccc2c(c1)OCO2 | -0.486
27 | COc1ccc(C(=O)N/N=c2\oc3ccccc3cc2C(=O)NCc2ccccc2)cc1 | 0.152
28 | O=C1Nc2c(c(=O)[nH]c(=O)n2-c2ccccc2F)C(C(F)(F)F)(C(F)(F)F)N1 | -0.0774
29 | COc1cccc(NC(=O)c2nc3ncccn3n2)c1 | -0.0396
30 | O=C(O)c1cc(N/N=C2/CC(c3ccccc3)Oc3ccccc32)ccc1Cl (configuration not stated) | 0.1
31 | CCOC(=O)C(=O)Nc1cc(Cl)ccc1C | -1.78
32 | O=C(CN1CCN(Cc2ccccc2)CC1)NCC1COc2ccccc2O1 (configuration not stated) | 0.105
33 | Nc1nc(SCc2ccc3c(c2)OCO3)n[nH]1 | -0.166
34 | Cc1cc(C(F)(F)F)nn1C(=O)c1cccnc1Cl | 0.239
35 | CCOc1ccc(C)cc1S(=O)(=O)n1ccnc1 | 0.0478
36 | CCOc1ccc(N(CC(=O)NC(C)CC)S(C)(=O)=O)cc1 (configuration not stated) | -0.296
37 | CCC(C)NC(=O)Nc1ccccc1F (configuration not stated) | 1.53
38 | CCCc1cc(C(=O)Cc2ccc(C(=O)OCC)o2)c(O)cc1O | -1.74
39 | CCn1c(Cc2ccc(OC)cc2)nnc1SCC(=O)Nc1cccc(C(=O)OC)c1 | -1.43
40 | CNC(=S)N(Cc1ccc(OC)cc1)C1CC(=O)N(c2ccc(OC)cc2)C1=O (configuration not stated) | -0.0408
41 | COc1ccc(C(=O)Nc2ncc3c(n2)-c2ccccc2CC3)cc1 | -0.247
42 | CN1C(=O)N2CN(C3CCCCC3)CN3C(=O)N(C)C1C23 (configuration not stated) | -0.275
43 | Cc1ccc(-c2ccc(/C=N\NC(=O)c3cc4c(ccc5ccccc54)o3)o2)cc1[N+](=O)[O-] | 0.0202
44 | COc1ccc(S(=O)(=O)N2CCN(CC(=O)Nc3ccc(C)c(F)c3)CC2)cc1 | -0.257
45 | CC(=O)c1ccc(N2CCN(C(=S)Nc3cccc(F)c3)CC2)cc1 | -0.0609
46 | CCOc1ccc2nc(NC3=NCN(CC4CCCO4)CN3)nc(C)c2c1 (configuration not stated) | -0.318

Row | SMILES | z-score
47 | CSc1nsc(SCC(=O)Nc2nc3ccccc3s2)n1 | 0.127
48 | Cc1ccc(-c2nc(=S)c3c(n2Cc2ccco2)CC(C)(C)OC3)cc1 | 1.54
49 | Cc1c(Cl)cccc1N1CC(C(=O)Nc2nccs2)CC1=O (configuration not stated) | -0.53
50 | CCCCn1nc2cc(C(=O)NC3CCCc4ccccc43)ccc2c1OCC (configuration not stated) | -0.297
51 | Cc1cc(C)cc(NC(=O)C2(c3cccs3)CCOCC2)c1 | 0.819
52 | CCOc1cc(C(=O)OCC(=O)Nc2cccc(C)c2)ccc1OCC(=O)N1CCOCC1 | -0.136
53 | CCN(CC)S(=O)(=O)c1cccc(NC(=O)/C=C/c2cccc([N+](=O)[O-])c2)c1 | 0.26
54 | Cc1ccc2c(c1)C(c1ccc(F)cc1)N(C(=O)C1CC1)CC(=O)N2 (configuration not stated) | 2.06
55 | CCCC(=O)c1ccc(N2CCCC2)c(F)c1 | -0.0859
56 | C/C(Cl)=C/CSc1nc2c(c(=O)[nH]c(=O)n2C)n1C(C)C | 0.133
57 | CNC(=O)c1nnn(Cc2ccccc2)c1NC(C)=O | -0.133
58 | COc1ccc(OC)c(C(c2nnnn2CCc2ccccc2)N2CCC(C(N)=O)CC2)c1 (configuration not stated) | -0.0793
59 | Cn1c(NC(=O)c2ccco2)cc(=O)n(C)c1=O | -0.188
60 | CCOC(=O)C(C(=O)Nc1ccc(C)cc1)C1CCCCC1 (configuration not stated) | -0.104
61 | Cc1nc2cc(N3CCCCC3)c(NC(=O)c3ccncc3)cc2c(=O)n1Cc1ccc(Cl)cc1 | -0.37
62 | CCOC(=O)c1cnc(SCC(=O)Nc2nnc(CC)s2)nc1N | 0.763
63 | Cc1cc(N(CC(=O)O)S(C)(=O)=O)ccc1Br | -0.273
64 | Cc1n[nH]c(C)c1S(=O)(=O)N(CC(=O)NC1CCCC1)c1ccc(C(C)C)cc1 | -0.141
65 | Cc1ccccc1Nc1nc(N)nc(COC(=O)CC2CC3CCC2C3)n1 (configuration not stated) | -0.47
66 | Cc1[nH]c2ccccc2c1CCNC(=O)c1ccc2c(c1[N+](=O)[O-])C(=O)c1ccccc1C2=O | -0.301
67 | Cc1ccc(S(=O)(=O)N2CCN(C(=O)CN3CCCC3)C2)cc1 | -0.333
68 | CCCCCC1CCC(C(=O)O)CC1 (configuration not stated) | -0.0769
69 | CCN(CC)S(=O)(=O)c1ccc(N2CCOCC2)c(NC(=O)C23CC4CC(CC(Cl)(C4)C2)C3)c1 | -0.227

Row | SMILES | z-score
70 | O=C(COC(=O)c1c2c(nc3ccccc13)/C(=C\c1cccs1)CCC2)Nc1ccccc1Cl | 0.194
71 | O=C(Nc1cc2c(cc1Cl)OCCO2)c1ccco1 | -0.227
72 | C=CCOc1cccc(C2C(C(=O)c3ccc(C)o3)=C(O)C(=O)N2CCN(C)C)c1 (configuration not stated) | -0.0156
73 | CCOC(=O)c1nn(-c2cccc(Cl)c2)c(C)c1C(C)=O | -0.154
74 | Cc1cccc(NC(=S)NNC(=O)CC(C)O)c1C (configuration not stated) | -0.263
75 | O=c1[nH]c(CSc2nnc(COc3ccccc3)n2-c2ccccc2)nc2ccccc12 | -0.443
76 | COc1ccc(CC(=O)Nc2sc(Cc3ccccc3)c(C)c2C(N)=O)cc1 | -0.16
77 | O=S(=O)(NC1c2cccc3cccc(c23)C1Sc1ncccn1)c1ccccc1 (configuration not stated) | 0.0513
78 | O=C(CNC1=NCCC1)c1ccc(Cl)cc1 | -0.159
79 | COc1ccc(N/C=C(/C(C)=O)c2ccccc2)cc1 | -0.164
80 | O=C(Nc1nc2c(Cl)ccc(Cl)c2s1)c1ccco1 | 1.81
81 | O=C(N/N=C/c1ccccc1[N+](=O)[O-])c1ccc(COc2ccccc2-c2ccccc2)cc1 | -0.281
82 | Cc1cc(C)n(-c2cc(C)c(C)cc2Br)n1 | -0.323
83 | Cc1ccc(NC(=O)CSc2nnc(-c3ccncc3)n2C)cc1C | -0.215
84 | O=C(O)CSC(C(=O)Nc1ccc(C(F)(F)F)cc1)c1ccccc1 (configuration not stated) | -0.302
85 | O=S(=O)(c1ccc2ccccc2c1)N1CCN(C(=S)Nc2ccc(F)c(Cl)c2)CC1 | 0.355
86 | CCOC(=O)c1cc2occc2n1CCCN1C(=O)c2ccccc2C1=O | -0.393
87 | O=C(CSc1nc2ccccc2c(=O)[nH]1)c1ccccc1 | -0.553
88 | CCN(CC)S(=O)(=O)c1cccc(NC(=O)CCSc2ccc(Cl)cc2)c1 | 0.0143
89 | CC1CN(C(=O)Nc2ccc3c(c2)OCO3)CC(C)O1 (configuration not stated) | -0.128
90 | CCC/C(O)=C1\C(=O)CC(c2ccccc2)CC1=NC(C)C(=O)O (configuration not stated) | 1.43
91 | Cc1cc(=O)oc2c(C)c(OCC(=O)N(C)C)ccc12 | 0.0347
92 | COc1cccc(NC(=O)C2CCN(S(=O)(=O)c3ccc4c(c3)OCCO4)CC2)c1 | -0.278

Row | SMILES | z-score
93 | CC(C)(C)C(=O)Nc1nc2c(s1)COc1ccccc1-2 | active: -4.24
94 | CS(=O)(=O)N(CC(=O)N1CCN(c2ccc(F)cc2)CC1)c1ccc(F)c(Cl)c1 | 0.0531
95 | CCN1C(=O)c2cccc3c(S(=O)(=O)N(C(=O)c4cccnc4)c4ccc(OC)cc4)ccc1c23 | -0.343
96 | CN(C)CCN1C(=O)C(O)=C(C(=O)c2cc3ccccc3o2)C1c1ccccn1 (configuration not stated) | 0.172
97 | CCOc1ccc(-c2nn3c(-c4ccccc4)nnc3s2)cc1 | 0.0852
98 | O=C(Cc1ccc(Cl)cc1Cl)Nc1ccc(OC(F)F)c(Cl)c1 | -0.174
99 | COC(=O)c1cc(OC)c(OC)cc1NC(=O)CSc1nnc(-c2cccnc2)n1C | -0.243
100 | CCCCC(C)n1[nH]c(=O)cc1N (configuration not stated) | -0.279
101 | Cc1ccc(C(=O)c2coc3c2C(=O)C(=O)c2ccccc2-3)cc1 | 0.63
102 | O=C(Nc1ccc(-c2nc3cccnc3s2)cc1)c1ccc(Br)o1 | -0.635
103 | O=C(CCC(=O)OCC(=O)c1ccc(Br)cc1)Nc1cccc2cccnc12 | -0.2
104 | O=C(N/N=C/c1ccccc1[N+](=O)[O-])c1ccc(CN2CCOCC2)cc1 | 1.27
105 | CN(C)c1nc(N)nc(CSc2nnnn2-c2ccccc2)n1 | 0.111
106 | CCOC(=O)C1CCN(C(=O)COc2ccc(Cl)cc2)CC1 | -0.448
107 | Cc1ccccc1CS(=O)(=O)CCC(=O)NCCCN1CCOCC1 | 0.319
108 | O=[N+]([O-])c1ccc(Cl)c(/C=N/N2CCN(Cc3ccccc3)CC2)c1 | -0.098
109 | Cc1[nH]c(=O)[nH]c(=O)c1NC(=O)c1cccs1 | -0.625
110 | CCOC(=O)c1oc2ccccc2c1NC(=O)c1ccc(Cl)s1 | 0.609
111 | COc1ccc(C)cc1S(=O)(=O)N(C)CC(=O)Nc1ccccc1 | 0.902
112 | COc1ccc(N(C)S(=O)(=O)c2ccc3c(c2)CCC(=O)N3)cc1 | -0.122
